Experimental data published in the supplement of paper PMC8728848.
This is one part of the list.

How the values were obtained:
Assay in all cases: glycan array binding signal (z-score within array); higher = stronger binding
Conditions in all cases: glycan notation: IUPAC condensed, linker removed
Fuc(a1-2)Gal = target: Fuc(a1-2)Gal
Summary of the method: (§1)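 Negative Z-scores can be read as non-binding. The Z-score is calculated within each array and then averaged across arrays of one protein sequence at different concentrations or buffers and across linkers. Arrays, 3228 in all, were curated from the Consortium for Functional Glycomics database and kept only where the protein sequence was available.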

Fuc(a1-2)Gal(b1-3)GalNAc = target: Fuc(a1-2)Gal(b1-3)GalNAc
Summary of the method: as §1

[1] = target: Fuc(a1-2)Gal(b1-3)GalNAc(a1-3)[Fuc(a1-2)]Gal(b1-4)Glc
Summary of the method: as §1

[2] = target: Fuc(a1-2)Gal(b1-3)GalNAc(a1-3)[Fuc(a1-2)]Gal(b1-4)GlcNAc
Summary of the method: as §1

[3] = target: Fuc(a1-2)Gal(b1-3)GalNAc(b1-3)Gal
Summary of the method: as §1

[4] = target: Fuc(a1-2)Gal(b1-3)GalNAc(b1-3)Gal(a1-4)Gal(b1-4)Glc
Summary of the method: as §1

[5] = target: Fuc(a1-2)Gal(b1-3)GalNAc(b1-4)[Neu5Ac(a2-3)]Gal(b1-4)Glc
Summary of the method: as §1

Fuc(a1-2)Gal(b1-3)GlcNAc = target: Fuc(a1-2)Gal(b1-3)GlcNAc
Summary of the method: as §1

[6] = target: Fuc(a1-2)Gal(b1-3)GlcNAc(b1-2)Man(a1-3)[Fuc(a1-2)Gal(b1-3)GlcNAc(b1-2)Man(a1-6)]Man(b1-4)GlcNAc(b1-4)GlcNAc
Summary of the method: as §1

[7] = target: Fuc(a1-2)Gal(b1-3)GlcNAc(b1-2)Man(a1-3)[Fuc(a1-2)Gal(b1-3)GlcNAc(b1-2)Man(a1-6)]Man(b1-4)GlcNAc(b1-4)[Fuc(a1-6)]GlcNAc
Summary of the method: as §1

[8] = target: Fuc(a1-2)Gal(b1-3)GlcNAc(b1-3)Gal(b1-4)Glc
Summary of the method: as §1

[9] = target: Fuc(a1-2)Gal(b1-3)GlcNAc(b1-3)GalNAc
Summary of the method: as §1

[10] = target: Fuc(a1-2)Gal(b1-3)GlcNAc(b1-3)[Fuc(a1-2)Gal(b1-3)GlcNAc(b1-6)]GalNAc
Summary of the method: as §1

[11] = target: Fuc(a1-2)Gal(b1-3)GlcNAc(b1-3)[Gal(b1-4)GlcNAc(b1-6)]Gal(b1-4)Glc
Summary of the method: as §1

[12] = target: Fuc(a1-2)Gal(b1-3)GlcNAc(b1-3)[Neu5Ac(a2-6)Gal(b1-4)GlcNAc(b1-6)]Gal(b1-4)Glc
Summary of the method: as §1

[13] = target: Fuc(a1-2)Gal(b1-3)GlcNAc6S
Summary of the method: as §1

[14] = target: Fuc(a1-2)Gal(b1-3)[Fuc(a1-4)]GlcNAc
Summary of the method: as §1

[15] = target: Fuc(a1-2)Gal(b1-3)[Fuc(a1-4)]GlcNAc(b1-2)Man(a1-3)[Fuc(a1-2)Gal(b1-3)[Fuc(a1-4)]GlcNAc(b1-2)Man(a1-3)]Man(b1-4)GlcNAc(b1-4)GlcNAc
Summary of the method: as §1

[16] = target: Fuc(a1-2)Gal(b1-3)[Fuc(a1-4)]GlcNAc(b1-2)Man(a1-3)[Fuc(a1-2)Gal(b1-3)[Fuc(a1-4)]GlcNAc(b1-2)Man(a1-6)]Man(b1-4)GlcNAc(b1-4)[Fuc(a1-6)]GlcNAc(b1-4)[Fuc(a1-6)]GlcNAc
Summary of the method: as §1

[17] = target: Fuc(a1-2)Gal(b1-3)[Fuc(a1-4)]GlcNAc(b1-3)[Fuc(a1-3)[Gal(b1-4)]GlcNAc(b1-6)]Gal(b1-4)Glc
Summary of the method: as §1

[18] = target: Fuc(a1-2)Gal(b1-3)[Fuc(a1-4)]GlcNAc(b1-3)[Gal(b1-4)GlcNAc(b1-6)]Gal(b1-4)Glc
Summary of the method: as §1

[19] = target: Fuc(a1-2)Gal(b1-4)Fuc(a1-3)]GlcNAc(b1-2)Man(a1-3)[Fuc(a1-2)Gal(b1-4)[Fuc(a1-3)]GlcNAc(b1-2)Man(a1-6)]Man(b1-4)GlcNAc(b1-4)GlcNAc
Summary of the method: as §1

Fuc(a1-2)Gal(b1-4)Glc = target: Fuc(a1-2)Gal(b1-4)Glc
Summary of the method: as §1

Fuc(a1-2)Gal(b1-4)Glc6S = target: Fuc(a1-2)Gal(b1-4)Glc6S
Summary of the method: as §1

Fuc(a1-2)Gal(b1-4)GlcNAc = target: Fuc(a1-2)Gal(b1-4)GlcNAc
Summary of the method: as §1

[20] = target: Fuc(a1-2)Gal(b1-4)GlcNAc(b1-2)Man
Summary of the method: as §1

[21] = target: Fuc(a1-2)Gal(b1-4)GlcNAc(b1-2)Man(a1-3)[Fuc(a1-2)Gal(b1-4)GlcNAc(b1-2)Man(a1-6)]Man(b1-4)GlcNAc(b1-4)GlcNAc
Summary of the method: as §1

[22] = target: Fuc(a1-2)Gal(b1-4)GlcNAc(b1-2)Man(a1-3)[Fuc(a1-2)Gal(b1-4)GlcNAc(b1-2)Man(a1-6)]Man(b1-4)GlcNAc(b1-4)[Fuc(a1-6)]GlcNAc
Summary of the method: as §1

[23] = target: Fuc(a1-2)Gal(b1-4)GlcNAc(b1-2)[Fuc(a1-2)Gal(b1-4)GlcNAc(b1-4)]Man(a1-3)[Fuc(a1-2)Gal(b1-4)GlcNAc(b1-2)Man(a1-6)]Man(b1-4)GlcNAc(b1-4)GlcNAc
Summary of the method: as §1

[24] = target: Fuc(a1-2)Gal(b1-4)GlcNAc(b1-3)Gal(b1-4)GlcNAc
Summary of the method: as §1

B1: AT1G73650(15) (Arabidopsis thaliana), F4HRY1 (protein)
chain: MGTVLDSHFLALTAIVTVIYQFIFFVITALFKFDQVTDFAGSTNFVILAVLTLVLKASWHFRQIVLTLLVVVWGLRLGIFLLMETRILQWGEDRRFDEQRGNIVRLIIFWTLQAVWVWTVSLPLTLVNASDGGGSLKPADVIGWTMETWVFGFLIEAAADQQKLSFKNSPENRGKWCDVGVWKYSRHPNYFGEMETLLWWGIFVAASPVLEGAEYLVIFGPLFLTLLLLFVSGIPLLEASADKKHGNSGAYRSYKKTTSPLILFPRGVYGNLPGWFKTVFLFEFPFYSRNLPQEGRLQNSKEKEVKDD
For B1, the “glycan array binding signal (z-score)” value (Fuc(a1-2)Gal) was -0.099, the “glycan array binding signal (z-score)” value (Fuc(a1-2)Gal(b1-3)GalNAc) was -0.344 and the “glycan array binding signal (z-score)” value [1] was -0.462. The “glycan array binding signal (z-score)” value [2] was -0.412, the “glycan array binding signal (z-score)” value [3] was -0.375 and the “glycan array binding signal (z-score)” value [4] was -0.432. The “glycan array binding signal (z-score)” value [5] was -0.055, the “glycan array binding signal (z-score)” value (Fuc(a1-2)Gal(b1-3)GlcNAc) was -0.573 and the “glycan array binding signal (z-score)” value [6] was -0.126. The “glycan array binding signal (z-score)” value [7] was 0.402, the “glycan array binding signal (z-score)” value [8] was -0.499 and the “glycan array binding signal (z-score)” value [9] was -0.598. For the same binder, the “glycan array binding signal (z-score)” value [10] was 0.694, the “glycan array binding signal (z-score)” value [11] was -0.427 and the “glycan array binding signal (z-score)” value [12] was -0.388. The “glycan array binding signal (z-score)” value [13] was -0.365, the “glycan array binding signal (z-score)” value [14] was -0.478 and the “glycan array binding signal (z-score)” value [15] was 1.82. The “glycan array binding signal (z-score)” value [16] was -0.621, the “glycan array binding signal (z-score)” value [17] was -0.434 and the “glycan array binding signal (z-score)” value [18] was -0.282. The “glycan array binding signal (z-score)” value [19] was -0.176, the “glycan array binding signal (z-score)” value (Fuc(a1-2)Gal(b1-4)Glc) was -0.406 and the “glycan array binding signal (z-score)” value (Fuc(a1-2)Gal(b1-4)Glc6S) was 0.018. For the same binder, the “glycan array binding signal (z-score)” value (Fuc(a1-2)Gal(b1-4)GlcNAc) was -0.194, the “glycan array binding signal (z-score)” value [20] was -0.619 and the “glycan array binding signal (z-score)” value [21] was -0.062. For the same binder, the “glycan array binding signal (z-score)” value [22] was -0.028, the “glycan array binding signal (z-score)” value [23] was -0.549 and the “glycan array binding signal (z-score)” value [24] was -0.393.
